The source of these data is patent publication US20050191301A1 (Janssen / Centocor, published 2005).

The target in this assay is T1, EPO receptor (on UT-7/EPO cells) (human, UniProt P19235 25-508).
T1 sequence (looked up): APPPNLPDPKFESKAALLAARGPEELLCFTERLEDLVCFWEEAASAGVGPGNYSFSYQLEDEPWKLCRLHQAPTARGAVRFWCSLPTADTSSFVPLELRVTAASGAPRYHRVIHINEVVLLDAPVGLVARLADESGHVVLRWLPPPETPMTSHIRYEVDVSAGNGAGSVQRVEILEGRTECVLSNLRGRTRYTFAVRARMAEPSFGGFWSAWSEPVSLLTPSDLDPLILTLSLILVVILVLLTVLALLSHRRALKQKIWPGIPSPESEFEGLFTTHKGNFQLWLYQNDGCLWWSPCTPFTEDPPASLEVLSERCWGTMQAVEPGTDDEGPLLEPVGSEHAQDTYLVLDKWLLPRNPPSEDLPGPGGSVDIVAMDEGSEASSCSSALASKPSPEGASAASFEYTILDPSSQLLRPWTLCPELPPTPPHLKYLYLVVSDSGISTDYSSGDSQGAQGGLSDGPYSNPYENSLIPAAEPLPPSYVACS
The experiment in a line: cell-based or functional assay.

B1: EMP-NfusCG1 (Fc fusion)
chain: QIQGGTYSCHFGPLTWVCKPQGGGSGGGSGTLVTVSS[human IgG1 Fc not listed]
Consider B1, for which the “activity in an in vitro cell proliferation assay, relative to the EMP-1 peptide” value was ~550 fold.

B2: EMP-NfusCG4 (Fc fusion)
chain: QIQGGTYSCHFGPLTWVCKPQGGGSGGGSGTLVTVSS[human IgG4 Fc not listed]
In the case of B2, the “fold decrease in potency in the UT-7/EPO in vitro bioactivity assay, relative to EMP-NfusCG1” value is 13 fold; the “potency in the UT-7/EPO in vitro bioactivity assay, relative to EMP-1” value turned out to be 40 fold; the “potency in the UT-7/EPO in vitro bioactivity assay, relative to EMP-NfusCG1 (average)” value was ~10 fold; the “potency in the UT-7/EPO in vitro bioactivity assay, relative to rHuEPO” value amounted to 60 fold.
